The source gives no read counts; variants with many changes may rest on few reads.
B1: LINE1-mini (parent)
chain: GGCAGAGCUCAACACAGCGUGGCAAAGUGGCUGUGGCUAGACUGCC

Variants of: B1
Assay: self-cleavage, relative activity (ratio to wild type); higher = more cleavage; in vitro, sequencing; the parent is a self-cleaving ribozyme

**Q.** For GGCAGAGGUCAACACAACGUGGCGAAGUGGCUGUGGCUAGACUGCC [C8G G17A A24G], which self-cleavage is on record?
**A.** 0.04

**Q.** Which self-cleavage does the source give for GGCAGAGGUCAAUACAGCGUGGCAACGUGGCUGUAGCUAGACUGCC [C8G C13U A26C G35A] here?
**A.** 0.14

**Q.** With GGCAGAGGUCAUCACAGCGUGGCAAAGCGGCGGUGGCUAGACUGCC [C8G A12U U28C U32G] as the variant, how does the self-cleavage read?
**A.** 0.07

**Q.** With GGCAGAGGUCAACUCAGGGUGGCAAAGUGGCUGUGGCUAGACCGCC [C8G A14U C18G U43C] as the variant, how does the self-cleavage read?
**A.** 0.01

**Q.** With GGCAGAGGUCAACACCGCGUGGCAAAGUGGGGGUGGCUAGACUGCC [C8G A16C C31G U32G] as the variant, how does the self-cleavage read?
**A.** 0.02

**Q.** With GGCAGAGGUCAAUACAGCGUGGCAAAGUGGCUGUGGCUGGACUGCC [C8G C13U A39G] as the variant, how does the self-cleavage read?
**A.** 0.04

**Q.** Which self-cleavage does the source give for GGCAGAGGUAAACAUAGCGAGGCAAAGUGGCUAUGGCUUGAUUGCC [C8G C10A C15U U20A G33A A39U C42U] here?
**A.** 0.02

**Q.** For GGCAGAGGUCAACACAUCGUGGCAAAGUAGAUGUGGCUAGACUGCA [C8G G17U G29A C31A C46A], which self-cleavage is on record?
**A.** 0.02

**Q.** Which self-cleavage does the source give for GGCAGAGGUCAACGUAGCGGGGCAAAGUGGCUGUGGCUAGACUACC [C8G A14G C15U U20G G44A] here?
**A.** 0.21

**Q.** Which self-cleavage does the source give for GGCAGAGGUCAACACAGCAUGGCAAAGUGACUGUGGCUAGACUGCC [C8G G19A G30A] here?
**A.** 0.09

**Q.** With GGCAGAGGUCAACACAGCGUGGCAAAGUGGCUGUGGGUAGACUGAC [C8G C37G C45A] as the variant, how does the self-cleavage read?
**A.** 0.01

**Q.** With GGCAGAGGUCAACACAGCGUGGCAAAGUGGCUGUGGUUAGGUUGCC [C8G C37U A41G C42U] as the variant, how does the self-cleavage read?
**A.** 0.16

**Q.** For GGCAGAGGUCAACACAGCGUGGCAAGGGGGCUGUGGCUAGAAUGCC [C8G A26G U28G C42A], which self-cleavage is on record?
**A.** 0.03

**Q.** With GGCAGAGGUCAAGAGAGCGUGGCAAAGUGGCUGUGGCUAGACUGCC [C8G C13G C15G] as the variant, how does the self-cleavage read?
**A.** 0.06

**Q.** Which self-cleavage does the source give for GGCAGAGGUCAACUCAGCGUGGCAAAGUGGCUGUGGGUAGUCUGCC [C8G A14U C37G A41U] here?
**A.** 0.04

**Q.** For GGCAGAGGUCAAGACAGCGUUGCAAAGUGGCUGUGACUAGACUGCC [C8G C13G G21U G36A], which self-cleavage is on record?
**A.** 0.18

**Q.** With GGCAGAGGUCAACACAGCGUGGCAAGGUGGCUGUGGCUACAAUGCC [C8G A26G G40C C42A] as the variant, how does the self-cleavage read?
**A.** 0

**Q.** For GGCAGAGGUCAACACAUCGUGGCAAAAUGGUGGUGGCUAGACUGCC [C8G G17U G27A C31U U32G], which self-cleavage is on record?
**A.** 0.02

**Q.** For GGCAGAGGUCAACACAGCAUGGCAAAGUGGCUGGGGUUAGACUGCC [C8G G19A U34G C37U], which self-cleavage is on record?
**A.** 0.05

**Q.** For GGCAGAGGUUAACACAGCGUGGCAAAGUGGUUGUGUCUAGACUGUC [C8G C10U C31U G36U C45U], which self-cleavage is on record?
**A.** 0.04

**Q.** Which self-cleavage does the source give for GGCAGAGGUCAACACAGCGUGGCAAAGUGGCUGUGGCUAGAGUGUC [C8G C42G C45U] here?
**A.** 0.17

**Q.** Which self-cleavage does the source give for GGCAGAGGUCAACACGGCGUGGCAAAGUGGCUGUGGCUAGACUACC [C8G A16G G44A] here?
**A.** 0.02

**Q.** Which self-cleavage does the source give for GGCAGAGGUCAACACAGCGUGGCACAGUGGCUGUGGCUAGACUGAC [C8G A25C C45A] here?
**A.** 0.03

**Q.** For GGCAGAGGUCAACUCAGCGUUGCAAAGUGGCUGUGGCUAGACUGCC [C8G A14U G21U], which self-cleavage is on record?
**A.** 0

**Q.** Which self-cleavage does the source give for GGCAGAGGUCAACACAACGUGGCAAUGUGGCUGUGGCUAGACUGCG [C8G G17A A26U C46G] here?
**A.** 0.02

**Q.** With GGCAGAGGUCAACAUAACGUGGCAAUCUGGGUGUUGCUAGACAGCU [C8G C15U G17A A26U G27C C31G G35U U43A C46U] as the variant, how does the self-cleavage read?
**A.** 0

**Q.** Which self-cleavage does the source give for GGCAGAGGUCAACAUAGCGUGGCAAGGUGGCUGUGGCUAGACUGCC [C8G C15U A26G] here?
**A.** 0.03

**Q.** With GGCAGAGGUAAACACUGCGUGAAAAAGCGGCUGUCGCUAGACUGCC [C8G C10A A16U G22A C23A U28C G35C] as the variant, how does the self-cleavage read?
**A.** 0.01

**Q.** Which self-cleavage does the source give for GGCAGAGGUCAACACAGCGUGGAAAAGUAGCUGUGGCUAGACUGCC [C8G C23A G29A] here?
**A.** 0.07

**Q.** Which self-cleavage does the source give for GGCAGAGGUCAACACAGCGUGGCAUAGUGGCUGGGGCUAGACUGCC [C8G A25U U34G] here?
**A.** 0.03

**Q.** With GGCAGAGGUCAACACCGCGUUGCAAAGUGGCUGUGGCUAGACUGCC [C8G A16C G21U] as the variant, how does the self-cleavage read?
**A.** 0.02

**Q.** Which self-cleavage does the source give for GGCAGAGGUCAACACAGCGUGGCAUAGUGGCUGUGGCUAGAGUACC [C8G A25U C42G G44A] here?
**A.** 0.05

**Q.** Which self-cleavage does the source give for GGCAGAGGUCAAGACAGCGUGGCAAAGUGGCUGUGGCAAGACUGCC [C8G C13G U38A] here?
**A.** 0.02

**Q.** Which self-cleavage does the source give for GGCAGAGGUCAACACAUCGUGGCAAAGUGGCUGUAGCUAGACUGCC [C8G G17U G35A] here?
**A.** 0.04

**Q.** For GGCAGAGGUCAACACAGCGUGGCAAAGUGGCUGUGGCUAGAAUCCC [C8G C42A G44C], which self-cleavage is on record?
**A.** 0.08

**Q.** With GGCAGAGGUCAACACCGCGUGGCAAAGGGGCUGUGGCUUGACUGCC [C8G A16C U28G A39U] as the variant, how does the self-cleavage read?
**A.** 0.01

**Q.** With GGCAGAGGUCAACCCUGCGUGGCAAAGUGGCUGUGGCUAGACUGCC [C8G A14C A16U] as the variant, how does the self-cleavage read?
**A.** 0.07

**Q.** For GGCAGAGGUCAACACAGCGUGGCAAUGUGGCUGUUGCUAGACUGCC [C8G A26U G35U], which self-cleavage is on record?
**A.** 0.02

**Q.** With GGCAGAGGUCAACAUAGCGUGGCAAUGGGGCUGUGGCUAGACUGCC [C8G C15U A26U U28G] as the variant, how does the self-cleavage read?
**A.** 0.01

**Q.** Which self-cleavage does the source give for GGCAGAGGUCAACAUAGCGUGGUAAACUGGCCGUGGCUAGACUGCC [C8G C15U C23U G27C U32C] here?
**A.** 0.02

**Q.** For GGCAGAGGUCAACACAUCGUGGGAAAGUGGCUGUGGCUAGACUGCC [C8G G17U C23G], which self-cleavage is on record?
**A.** 0.02

**Q.** With GGCAGAGGUCAACACAGGCUGGCAAAGUGGCUGUAGCUAGACUGCC [C8G C18G G19C G35A] as the variant, how does the self-cleavage read?
**A.** 0.07

**Q.** For GGCAGAGGUUCACACCGCGUGGCUAAGUGUCUGUGGCUAGACUGCC [C8G C10U A11C A16C A24U G30U], which self-cleavage is on record?
**A.** 0.01

**Q.** For GGCAGAGGUCAACAAAGCGUGGCAAAGUGGCUGCGGCUAGACUUCC [C8G C15A U34C G44U], which self-cleavage is on record?
**A.** 0.05

**Q.** For GGCAGAGGUCAACACAGCGUGGCAAGGUGGCUGUGGAUAGACUUCC [C8G A26G C37A G44U], which self-cleavage is on record?
**A.** 0.06

**Q.** With GGCAGAGGUCAACACUCGGUGGCAAAGAGGCUGUGUCUAGACUGCC [C8G A16U G17C C18G U28A G36U] as the variant, how does the self-cleavage read?
**A.** 0.08

**Q.** With GGCAGAGGUAAUCACAGCGAAGCAAAGUGGCUGUGGAUAUACUGCC [C8G C10A A12U U20A G21A C37A G40U] as the variant, how does the self-cleavage read?
**A.** 0.01

**Q.** For GGCAGAGGUCAACACAGCGUGGCAACGUGGCUGAGGCUAGAGUGUC [C8G A26C U34A C42G C45U], which self-cleavage is on record?
**A.** 0.05

**Q.** Which self-cleavage does the source give for GGCAGAGGUCAACACAGCGUGGCAUAGUGGCUGUGGCUCGACUGCC [C8G A25U A39C] here?
**A.** 0.11

**Q.** Which self-cleavage does the source give for GGCAGAGGUCAACACAGCCUGGCAAAGUGGCUGUGCCUAGACUGCC [C8G G19C G36C] here?
**A.** 0.05

**Q.** Which self-cleavage does the source give for GGCAGAGGUCAACACAGCGUGGCACAGUGGUUGUGGCUACACGUCC [C8G A25C C31U G40C U43G G44U] here?
**A.** 0.03

**Q.** Which self-cleavage does the source give for GGCAGAGGUGAACACAGCGUGGCAAAGUGGCUGUGGCUAGUCUGCC [C8G C10G A41U] here?
**A.** 0.02

**Q.** Which self-cleavage does the source give for GGCAGAGGUCAACACAGUGCGUUAAAGUGGAUGCGGCUAGACUGCC [C8G C18U U20C G22U C23U C31A U34C] here?
**A.** 0.01

**Q.** Which self-cleavage does the source give for GGCAGAGGUUAACUCAGCGUGGCAAAGUGGCUGUAGCUAGACUGCC [C8G C10U A14U G35A] here?
**A.** 0.02

**Q.** Which self-cleavage does the source give for GGCAGAGGUCAACACAGCGUGGCACGGUUGCUGUGGCUUGACUGCC [C8G A25C A26G G29U A39U] here?
**A.** 0.02

**Q.** For GGCAGAGGUCAACACAGCGUGGCAGAGUGGCUGUGGCUAGAAUGCC [C8G A25G C42A], which self-cleavage is on record?
**A.** 0.02
